Experimental data from patent US20220408724A1, “METHOD FOR CONTROLLING METABOLISM OF BRANCHED FATTY ACID” (KAO CORPORATION, priority 2019, published 2022).
Where “and” joins values, the source holds several entries; their conditions need not be identical. Equal values may be shown once. At least one read-out could not be matched to a standard name with certainty.

Assays:
Type in all cases: cell-based
Moraxella osloensis [1] = experiment: Measurement of viable bacterial count on fabric
Moraxella osloensis [2] = experiment: Suppression of metabolism of 14-methylhexadecanoic acid on cotton fabric (residual acid by GC)
Moraxella osloensis [3] = experiment: Suppression of metabolite 4-methyl-3-hexenoic acid from 14-methylhexadecanoic acid (HPLC)

| SMILES | Bacterial count (Log (cfu/fabric cm^2)) (Moraxella osloensis [1]; agent 250 μg/fabric g) | Metabolism suppression rate (%) (Moraxella osloensis [2]; agent 100 μg/fabric g) | Metabolism suppression rate (%) (Moraxella osloensis [2]; agent 250 μg/fabric g) | Metabolite suppression rate (%) (Moraxella osloensis [3]; agent 100 μg/fabric g) | Metabolite suppression rate (%) (Moraxella osloensis [3]; agent 250 μg/fabric g) | Bacterial count (Log (cfu/fabric cm^2)) (Moraxella osloensis [1]; agent 100 μg/fabric g) | Metabolism suppression rate (%) (Moraxella osloensis [2]; agent 500 μg/fabric g) | Metabolite suppression rate (%) (Moraxella osloensis [3]; agent 500 μg/fabric g) | Bacterial count (Log (cfu/fabric cm^2)) (Moraxella osloensis [1]; agent 500 μg/fabric g) |
| --- | --- | --- | --- | --- | --- | --- | --- | --- | --- |
| CCCCCCCCCO [Example C9OH, 1-nonyl alcohol] | 6.2 Log (cfu/fabric cm^2) |  |  |  |  |  |  |  |  |
| CCCCCCCCCCCCCO [Example C13OH, 1-tridecanol] | 6.1 Log (cfu/fabric cm^2) | 48% | 93% | 87% | 94% | 6.2 Log (cfu/fabric cm^2) |  |  |  |
| CCCCCCCC(C)CCCO (stereo not drawn) [Example 4-C12OH, 4-methyl-1-undecanol, reference compound] | 5.0 Log (cfu/fabric cm^2) | −10% | 8% | −23% | 0% | 6.6 Log (cfu/fabric cm^2) |  |  |  |
| CCCCCCCCCCCCCCO [Example C14OH, 1-tetradecanol] | 6.1 Log (cfu/fabric cm^2) | 30% | 67% | 57% | 93% | 5.9 Log (cfu/fabric cm^2) |  |  |  |
| CCCCCCCCCCCCO [Example C12OH, 1-dodecanol] | 6.4 Log (cfu/fabric cm^2) and 6.5 Log (cfu/fabric cm^2) | 42% and 23.8% | 91% and 79.4% |  | 87% and 76% | 6.2 Log (cfu/fabric cm^2) and 6.0 Log (cfu/fabric cm^2) | 83.3% | 85% | 5.6 Log (cfu/fabric cm^2) |
| CCCCCCCCCCCCOCCO [Example C12E1, ethylene glycol mono-1-dodecyl ether] | 6.0 Log (cfu/fabric cm^2) | 29% | 90% | 63% | 70% | 6.1 Log (cfu/fabric cm^2) |  |  |  |
| CCCCCCCCCCO [Example C10OH, 1-decanol] | 5.9 Log (cfu/fabric cm^2) |  | 18% |  | 14% |  |  |  |  |
| CCCCCCCCCCCCCCCCCCO [Example C18OH, 1-octadecanol, reference compound] | 6.3 Log (cfu/fabric cm^2) | 2% | 9% | 2% | 12% | 5.7 Log (cfu/fabric cm^2) |  |  |  |
| CCCCCCCCCCCCCCCCO [Example C16OH, 1-hexadecanol] | 6.2 Log (cfu/fabric cm^2) | 12% | 37% | 45% | 72% | 6.1 Log (cfu/fabric cm^2) |  |  |  |
| CCCCCCCCCCCCCCCO [Example C15OH, 1-pentadecanol] | 5.9 Log (cfu/fabric cm^2) | 21% | 84% | 69% | 97% | 6.0 Log (cfu/fabric cm^2) |  |  |  |
| CCCCCCCCCCCO [Example C11OH, 1-undecanol] | 6.3 Log (cfu/fabric cm^2) | 14% | 24% | 53% | 95% | 5.8 Log (cfu/fabric cm^2) |  |  |  |
| CCCCCCCCCCCCOCCOCCOCCOCCOCCO [Example C12E5, pentaethylene glycol mono-1-dodecyl ether, reference compound] | 6.1 Log (cfu/fabric cm^2) | 2% | 4% | 8% | 2% | 6.3 Log (cfu/fabric cm^2) |  |  |  |
